Measurements: the supplement of paper PMC4604168 (melanoma cell lines)
The other results are listed elsewhere or left out. Most values come without repeats; read them as rough.

Assays:
Assay in all cases: cell count relative to DMSO control; melanoma cells; higher = more viable cells
Settings in all cases: library dose: standard library concentration; 72 h
G361 = test system: G361
IPC-298 = test system: IPC-298
IST-MEL1 = test system: IST-MEL1
LB2518-MEL = test system: LB2518-MEL
LOXIMVI = test system: LOXIMVI
MEL-HO = test system: MEL-HO
MZ2-MEL = test system: MZ2-MEL
MeWo = test system: MeWo
RPMI7951 = test system: RPMI7951
RVH-421 = test system: RVH-421
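Further: cells treated in 1,536-well plates, then fixed and DAPI-stained, with nuclei counted from automated high-throughput microscope images.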

Compound | cell count (G361) [%] | cell count (IPC-298) [%] | cell count (IST-MEL1) [%] | cell count (LB2518-MEL) [%] | cell count (LOXIMVI) [%] | cell count (MEL-HO) [%] | cell count (MZ2-MEL) [%] | cell count (MeWo) [%] | cell count (RPMI7951) [%] | cell count (RVH-421) [%]
CC(C)C[C@H](NC(=O)[C@H](Cc1ccccc1)NC(=O)c1cnccn1)B(O)O [Bortezomib] + COc1cc(Nc2ncc(F)c(Nc3ccc4c(n3)NC(=O)C(C)(C)O4)n2)cc(OC)c1OC [Tamatinib] (first compound 0.005 µM, partner dose 2 µM) | 0.377 | 10.6 | 9.51 | 2.7 | 13.6 | 33 | 6.64 | 14 | 3.42 | 3.19
CC(C)C[C@H](NC(=O)[C@H](Cc1ccccc1)NC(=O)c1cnccn1)B(O)O [Bortezomib] + Cc1cc(N2CCOCC2)cc2[nH]c(-c3c(NC[C@@H](O)c4cccc(Cl)c4)cc[nH]c3=O)nc12 [BMS536924] (first compound 0.005 µM, partner dose 1 µM) | 0.722 | 20.1 | 17.3 | 3.82 | 16.7 | 37.4 | 6.2 | 15.3 | 3.51 | 5.2
Cn1c(=O)n(-c2ccc(C(C)(C)C#N)cc2)c2c3cc(-c4cnc5ccccc5c4)ccc3ncc21 + O=C(O)c1ccc(-c2c[nH]c3ncc(-c4ccccc4)cc23)cc1C1CCCC1 [GSK650394] (first compound 0.02 µM, partner dose 0.8 µM) | 60.9 | 81 | 60.9 | 89.3 | 81 | 66.6 | 91 | 62.9 | 69.8 | 88.7
Cc1cn(-c2cc(NC(=O)c3ccc(C)c(Nc4nccc(-c5cccnc5)n4)c3)cc(C(F)(F)F)c2)cn1 [nilotinib] + OCCn1cc(-c2cnc3nnn(Cc4ccc5ncccc5c4)c3n2)cn1 [PF04217903] (first compound 1 µM, partner dose 5 µM) | 88.4 | 106 | 82.4 | 88.9 | 110 | 88.1 | 117 | 91.9 | 66.3 | 82.9
Cn1c(=O)n(-c2ccc(C(C)(C)C#N)cc2)c2c3cc(-c4cnc5ccccc5c4)ccc3ncc21 + C=CCNC1=C2C[C@@H](C)C[C@H](OC)[C@H](O)[C@@H](C)/C=C(\C)[C@H](OC(N)=O)[C@@H](OC)/C=C\C=C(/C)C(=O)NC(=CC1=O)C2=O [Tanespimycin] (first compound 0.02 µM, partner dose 0.01 µM) | 39.1 | 75.8 | 51.6 | 67.7 | 85.2 | 72.7 | 94.7 | 49.2 | 27.7 | 54.7
COc1ccc(C2=N[C@@H](c3ccc(Cl)cc3)[C@@H](c3ccc(Cl)cc3)N2C(=O)N2CCNC(=O)C2)c(OC(C)C)c1 [Nutlin-3] + CS(=O)(=O)CCNCc1ccc(-c2ccc3ncnc(Nc4ccc(OCc5cccc(F)c5)c(Cl)c4)c3c2)o1 [lapatinib] (first compound 0.5 µM, partner dose 4 µM) | 71.1 | 84.3 | 109 | 61.2 | 58.9 | 93.2 | 73.8 | 99.5 | 76.1 | 56.2
Cn1c(=O)n(-c2ccc(C(C)(C)C#N)cc2)c2c3cc(-c4cnc5ccccc5c4)ccc3ncc21 + OCc1c[nH]c2ccccc12 [Indole-3-carbinol] (first compound 0.02 µM, partner dose 4 µM) | 73.3 | 74.4 | 78.3 | 73.1 | 62.7 | 72.8 | 73.6 | 65.4 | 71.2 | 70.7
Cc1cn(-c2cc(NC(=O)c3ccc(C)c(Nc4nccc(-c5cccnc5)n4)c3)cc(C(F)(F)F)c2)cn1 [nilotinib] + CCN(CC)CCNC(=O)c1c(C)[nH]c(/C=C2\C(=O)Nc3ccc(F)cc32)c1C [sunitinib] (first compound 1 µM, partner dose 2 µM) | 96.6 | 99.3 | 95.2 | 71.6 | 182 | 114 | 96.2 | 66.5 | 73.3 | 126
COc1ccc(C2=N[C@@H](c3ccc(Cl)cc3)[C@@H](c3ccc(Cl)cc3)N2C(=O)N2CCNC(=O)C2)c(OC(C)C)c1 [Nutlin-3] + Cc1cc([N+](=O)[O-])ccc1NS(=O)(=O)c1cc(Cl)ccc1Cl [FH535] (first compound 0.5 µM, partner dose 5 µM) | 35.5 | 60.4 | 53.3 | 77.4 | 71.6 | 48.2 | 83.2 | 91.3 | 84.8 | 54.1
Cc1cn(-c2cc(NC(=O)c3ccc(C)c(Nc4nccc(-c5cccnc5)n4)c3)cc(C(F)(F)F)c2)cn1 [nilotinib] + Cn1sc(=O)n(Cc2ccccc2)c1=O [TDZD-8] (first compound 1 µM, partner dose 2 µM) | 91.3 | 117 | 107 | 92.3 | 94.5 | 97.6 | 117 | 106 | 99.9 | 84.8
Cc1cc(Nc2cc(N3CCN(C)CC3)nc(/C=C/c3ccccc3)n2)n[nH]1 + C[C@@H]1CCN(C(=O)CC#N)C[C@@H]1N(C)c1ncnc2[nH]ccc12 [CP690550] (first compound 0.2 µM, partner dose 5 µM) | 77.5 | 82.2 | 77.2 | 78.3 | 96.3 | 86.5 | 112 | 87.5 | 82 | 81.2
Cc1cn(-c2cc(NC(=O)c3ccc(C)c(Nc4nccc(-c5cccnc5)n4)c3)cc(C(F)(F)F)c2)cn1 [nilotinib] + N#Cc1c(O)c2c(-c3ccc(-c4ccccc4O)cc3)csc2[nH]c1=O [A769662] (first compound 1 µM, partner dose 10 µM) | 92 | 93.7 | 88.8 | 111 | 85.9 | 90.5 | 106 | 97.8 | 86.2 | 113
CC(C)C[C@H](NC(=O)[C@H](Cc1ccccc1)NC(=O)c1cnccn1)B(O)O [Bortezomib] + C[C@]1(c2nc3c(C(N)=O)cccc3[nH]2)CCCN1 [Veliparib] (first compound 0.005 µM, partner dose 7 µM) | 1.37 | 13.6 | 12 | 2.37 | 31.6 | 30.3 | 6.09 | 22.4 | 5.14 | 17
COc1ccc(C2=N[C@@H](c3ccc(Cl)cc3)[C@@H](c3ccc(Cl)cc3)N2C(=O)N2CCNC(=O)C2)c(OC(C)C)c1 [Nutlin-3] + O=C(CCCCCCC(=O)Nc1ccccc1)NO [vorinostat] (first compound 0.5 µM, partner dose 0.4 µM) | 60.5 | 87.4 | 98.3 | 54.1 | 55.9 | 91 | 105 | 78.9 | 70.9 | 60
Cc1cc(Nc2cc(N3CCN(C)CC3)nc(/C=C/c3ccccc3)n2)n[nH]1 + O=c1cc(-c2cccc3c2Sc2ccccc2S3)oc(N2CCOCC2)c1 [KU55933] (first compound 0.2 µM, partner dose 5 µM) | 72.8 | 90.5 | 94.3 | 73.9 | 100 | 81.6 | 110 | 95.2 | 49.3 | 115
Cc1cn(-c2cc(NC(=O)c3ccc(C)c(Nc4nccc(-c5cccnc5)n4)c3)cc(C(F)(F)F)c2)cn1 [nilotinib] + C[C@]1(O)C[C@@H](c2nc(-c3ccc4ccc(-c5ccccc5)nc4c3)c3c(N)nccn32)C1 [OSI906] (first compound 1 µM, partner dose 2 µM) | 57.9 | 78.2 | 82.2 | 61.5 | 94 | 77.3 | 72 | 66.7 | 83.6 | 71.8
Cn1c(=O)n(-c2ccc(C(C)(C)C#N)cc2)c2c3cc(-c4cnc5ccccc5c4)ccc3ncc21 + CC(=O)c1c(C)c2cnc(Nc3ccc(N4CCNCC4)cn3)nc2n(C2CCCC2)c1=O [palbociclib] (first compound 0.02 µM, partner dose 0.2 µM) | 38.4 | 64.9 | 55.3 | 76.8 | 57.1 | 75.4 | 67.8 | 46.9 | 59.1 | 56.7
COc1ccc(C2=N[C@@H](c3ccc(Cl)cc3)[C@@H](c3ccc(Cl)cc3)N2C(=O)N2CCNC(=O)C2)c(OC(C)C)c1 [Nutlin-3] + CS(=O)(=O)c1ccc(C(=O)Nc2ccc(Cl)c(-c3ccccn3)c2)c(Cl)c1 [vismodegib] (first compound 0.5 µM, partner dose 5 µM) | 75.9 | 125 | 111 | 80.7 | 61.9 | 100 | 99.7 | 114 | 132 | 67.5
Cc1cc(Nc2cc(N3CCN(C)CC3)nc(/C=C/c3ccccc3)n2)n[nH]1 + COC(=O)c1sccc1S(=O)(=O)Nc1ccc(Nc2ccccc2)cc1OC [GSK0660] (first compound 0.2 µM, partner dose 5 µM) | 82.7 | 87.2 | 97.4 | 78.2 | 94.4 | 92.3 | 87 | 82.1 | 63.4 | 69.9
COc1ccc(C2=N[C@@H](c3ccc(Cl)cc3)[C@@H](c3ccc(Cl)cc3)N2C(=O)N2CCNC(=O)C2)c(OC(C)C)c1 [Nutlin-3] + C=CCn1c(=O)c2cnc(Nc3ccc(N4CCN(C)CC4)cc3)nc2n1-c1cccc(C(C)(C)O)n1 [MK1775] (first compound 0.5 µM, partner dose 0.1 µM) | 68.7 | 93.1 | 85.1 | 44.2 | 80.4 | 95.8 | 108 | 79.8 | 84.6 | 63
Cc1cn(-c2cc(NC(=O)c3ccc(C)c(Nc4nccc(-c5cccnc5)n4)c3)cc(C(F)(F)F)c2)cn1 [nilotinib] + C[C@]1(c2nc3c(C(N)=O)cccc3[nH]2)CCCN1 [Veliparib] (first compound 1 µM, partner dose 7 µM) | 80.8 | 100 | 95.6 | 73.1 | 97.6 | 97.1 | 86.8 | 85.4 | 83.2 | 79.5
